To fix the notation:
B1: PhoQ; a variant is named by its letters at X, in order, P23837 (parent)
chain: MKKLLRLFFPLSLRVRFLLATAAVVLVLSLAYGMVALIGYSVSFDKTTFRLLRGESNLFYTLAKWENNKLHVELPENIDKQSPTMTLIYDENGQLLWAQRDVPWLMKMIQPDWLKSNGFHEIEADVNDTSLLLSGDHSIQQQLQEVREDDDDAEMTHSVAVNVYPATSRMPKLTIVVVDTIPVELKSSYMVWSWFIYVLSANLLLVIPLLWVAAWWSLRPIEALAKEVRELEEHNRELLNPATTRELTSLVRNLNRLLKSERERYDKYRTTLTDLTHSLKTPLXXLQXXLRSLRSEKMSVSDAEPVMLEQISRISQQIGYYLHRASMRGGTLLSRELHPVAPLLDNLTSALNKVYQRKGVNISLDISPEISFVGEQNDFVEVMGNVLDNACKYCLEFVEISARQTDEHLYIVVEDDGPGIPLSKREVIFDRGQRVDTLRPGQGVGLAVAREITEQYEGKIVAGESMLGGARMEVIFGRQHSAPKDE

The list shows a part of the results. Bounds are passed on as bounds.

Variants of B1 are the subject of the assay. Briefly: enrichment ratio after two sorts for PhoP signalling (ratio (wild type AVST 3.29)); higher = more functional. The settings on record: with PhoP (E. coli).
As to WSEN, the enrichment ratio was no more than 0.25.

Regarding LVFD, the enrichment ratio was no more than 0.25.

Regarding ESGY, the enrichment ratio is no more than 0.25.

For SADG, the enrichment ratio is no more than 0.25.

RKTH: the enrichment ratio was no more than 0.25.

PACY: the enrichment ratio is no more than 0.25.

With KIAI, the enrichment ratio was no more than 0.25.

Consider DKDP, for which the enrichment ratio is no more than 0.25.

As to VPQC, the enrichment ratio was no more than 0.25.

In the case of NEPP, the enrichment ratio is no more than 0.25.

As for RHDD, the enrichment ratio is no more than 0.25.

With ACWE, the enrichment ratio was no more than 0.25.

Take LHCW: the enrichment ratio was no more than 0.25.

For KDDS, the enrichment ratio is no more than 0.25.

Consider AQGW, for which the enrichment ratio is no more than 0.25.

On to QDYG, for which the enrichment ratio is no more than 0.25.

As for PPWY, the enrichment ratio is no more than 0.25.

WDLP: the enrichment ratio is no more than 0.25.

With ERFW, the enrichment ratio was no more than 0.25.

As for GKIL, the enrichment ratio amounted to 2.81.

On to PIPN, for which the enrichment ratio is no more than 0.25.

For LRDA, the enrichment ratio is no more than 0.25.

With DCSV, the enrichment ratio was no more than 0.25.

On to VSQQ, for which the enrichment ratio was no more than 0.25.

Turning to KGFD, the enrichment ratio is no more than 0.25.

Turning to NTLD, the enrichment ratio was no more than 0.25.

In the case of KKYK, the enrichment ratio was no more than 0.25.

As to EIHA, the enrichment ratio was no more than 0.25.

Turning to IETI, the enrichment ratio was no more than 0.25.

As to LIGE, the enrichment ratio was no more than 0.25.

On to MKAF, for which the enrichment ratio was no more than 0.25.

On to SCVI, for which the enrichment ratio turned out to be 1.87.

Turning to MMSL, the enrichment ratio was determined as 6.66.

For LECG, the enrichment ratio is 1.47.

As for HCRH, the enrichment ratio is no more than 0.25.

TQDA: the enrichment ratio was no more than 0.25.

In the case of IMTL, the enrichment ratio was no more than 0.25.

Turning to FYPH, the enrichment ratio is no more than 0.25.

In the case of NKFY, the enrichment ratio is no more than 0.25.

CLFC: the enrichment ratio was no more than 0.25.

With VHAP, the enrichment ratio was no more than 0.25.

Consider MPKK, for which the enrichment ratio was no more than 0.25.

TKGE: the enrichment ratio was no more than 0.25.

Regarding SELA, the enrichment ratio amounted to 12.4.

As for EGAV, the enrichment ratio was no more than 0.25.

As to SQMD, the enrichment ratio stood at 17.4.

Take FTMQ: the enrichment ratio came to 3.38.

With WYTA, the enrichment ratio is no more than 0.25.

HFFD: the enrichment ratio is no more than 0.25.

As to YMPL, the enrichment ratio is no more than 0.25.

As to HEPR, the enrichment ratio is no more than 0.25.

As for YWSG, the enrichment ratio was no more than 0.25.

Take QCVR: the enrichment ratio is no more than 0.25.

Take IAMY: the enrichment ratio is no more than 0.25.

Regarding IIQY, the enrichment ratio was no more than 0.25.

In the case of VHTF, the enrichment ratio is no more than 0.25.

Turning to ILRY, the enrichment ratio was no more than 0.25.

As to ELKT, the enrichment ratio was no more than 0.25.

Regarding ILLG, the enrichment ratio is no more than 0.25.

In the case of WCSC, the enrichment ratio is no more than 0.25.

Turning to TQVN, the enrichment ratio is 1.93.

Regarding NLRQ, the enrichment ratio is no more than 0.25.

As for SGDM, the enrichment ratio is no more than 0.25.

As for LWQC, the enrichment ratio is no more than 0.25.

As for VRMF, the enrichment ratio is no more than 0.25.

For the variant PIMN, the enrichment ratio is no more than 0.25.

LENH: the enrichment ratio was no more than 0.25.

Take NVAY: the enrichment ratio was no more than 0.25.

With NDGS, the enrichment ratio is no more than 0.25.

For the variant RIYH, the enrichment ratio was no more than 0.25.

As for LWIR, the enrichment ratio was no more than 0.25.

Regarding GMTV, the enrichment ratio came out at 0.937.

With PNWD, the enrichment ratio is no more than 0.25.

Consider QHFM, for which the enrichment ratio is 7.08.

Take NNAK: the enrichment ratio was no more than 0.25.

With AFPY, the enrichment ratio was no more than 0.25.

For the variant KDAR, the enrichment ratio is no more than 0.25.

Regarding MTPE, the enrichment ratio is no more than 0.25.

Consider SIFC, for which the enrichment ratio was no more than 0.25.

AVDP: the enrichment ratio was no more than 0.25.

For TNNK, the enrichment ratio is no more than 0.25.

In the case of WGWS, the enrichment ratio is no more than 0.25.

Take FTVY: the enrichment ratio was no more than 0.25.

Consider PTQF, for which the enrichment ratio was no more than 0.25.

Regarding GFWG, the enrichment ratio is no more than 0.25.

Regarding ERNY, the enrichment ratio was no more than 0.25.

As to ECSA, the enrichment ratio is no more than 0.25.

In the case of PYQF, the enrichment ratio is no more than 0.25.

In the case of DSDK, the enrichment ratio was no more than 0.25.

In the case of QDPD, the enrichment ratio was no more than 0.25.

Regarding VKMS, the enrichment ratio was no more than 0.25.

On to MLCN, for which the enrichment ratio was no more than 0.25.

Regarding VEAT, the enrichment ratio was found to be 1.85.

Consider QPCK, for which the enrichment ratio was no more than 0.25.

For the variant IEWG, the enrichment ratio was no more than 0.25.

KHCG: the enrichment ratio was no more than 0.25.

With YDTI, the enrichment ratio was no more than 0.25.

In the case of GYVA, the enrichment ratio is no more than 0.25.

In the case of LMDR, the enrichment ratio was no more than 0.25.

As to AKNH, the enrichment ratio is no more than 0.25.

As to LMFG, the enrichment ratio is no more than 0.25.

With NFRR, the enrichment ratio is no more than 0.25.

Take DDRH: the enrichment ratio is no more than 0.25.

As for LMRH, the enrichment ratio was no more than 0.25.

With MFAL, the enrichment ratio is no more than 0.25.

Take RFGY: the enrichment ratio is no more than 0.25.

Take IMCD: the enrichment ratio was no more than 0.25.

As for TLSL, the enrichment ratio came out at 15.8.

In the case of TTSF, the enrichment ratio was found to be 13.7.

Turning to SVWE, the enrichment ratio is no more than 0.25.

With RFDV, the enrichment ratio was no more than 0.25.

For the variant EPFK, the enrichment ratio was no more than 0.25.

With SYHM, the enrichment ratio was no more than 0.25.

On to HKVS, for which the enrichment ratio was no more than 0.25.

In the case of NVIV, the enrichment ratio is no more than 0.25.

In the case of MYMC, the enrichment ratio was no more than 0.25.

For the variant HRCW, the enrichment ratio is no more than 0.25.

In the case of KPRA, the enrichment ratio was no more than 0.25.

As for QPCC, the enrichment ratio was no more than 0.25.

Regarding NLPQ, the enrichment ratio was no more than 0.25.

Consider LHYN, for which the enrichment ratio is no more than 0.25.

With YFKF, the enrichment ratio was no more than 0.25.

For the variant KDAC, the enrichment ratio is no more than 0.25.

Take RMHH: the enrichment ratio was no more than 0.25.

Turning to TLSP, the enrichment ratio is no more than 0.25.

For the variant FMLC, the enrichment ratio was no more than 0.25.

Consider DQMV, for which the enrichment ratio was no more than 0.25.

With LQTG, the enrichment ratio was 1.22.

For SWST, the enrichment ratio was no more than 0.25.

Regarding YMMP, the enrichment ratio was no more than 0.25.

As to SWET, the enrichment ratio is no more than 0.25.

In the case of AFIC, the enrichment ratio was no more than 0.25.

NHFR: the enrichment ratio is no more than 0.25.

KARH: the enrichment ratio is no more than 0.25.

Consider NLTI, for which the enrichment ratio was no more than 0.25.

Consider HHLK, for which the enrichment ratio is no more than 0.25.

As to DCVN, the enrichment ratio was no more than 0.25.

As for VRWL, the enrichment ratio is no more than 0.25.

For the variant PPHG, the enrichment ratio is no more than 0.25.

With CMLI, the enrichment ratio was no more than 0.25.

Take MRER: the enrichment ratio was no more than 0.25.

Take FHEI: the enrichment ratio was no more than 0.25.

Consider PDVA, for which the enrichment ratio was no more than 0.25.

Take FVAM: the enrichment ratio is no more than 0.25.

Consider QMHW, for which the enrichment ratio was no more than 0.25.

As to PAFI, the enrichment ratio was no more than 0.25.

As to IFIR, the enrichment ratio was no more than 0.25.

Regarding LNSW, the enrichment ratio is no more than 0.25.

For the variant QHYS, the enrichment ratio is no more than 0.25.

For the variant KTCL, the enrichment ratio is no more than 0.25.

For the variant NIPM, the enrichment ratio was no more than 0.25.

In the case of WHSK, the enrichment ratio is no more than 0.25.

For HLKV, the enrichment ratio is no more than 0.25.

These data come from a collection of fitness landscapes (doi:10.1126/science.1257360).
